# Assay results published in the supplement of paper PMC8728848.
# This is one part of the list.
# Tests used:
# Assay in all cases: glycan array binding signal (z-score within array); higher = stronger binding
# Conditions in all cases: glycan notation: IUPAC condensed, linker removed
# [1] = target: Neu5Ac(a2-3)Gal(b1-4)[Fuc(a1-3)]GlcNAc(b1-3)Gal(b1-4)[Fuc(a1-3)]GlcNAc(b1-3)Gal(b1-4)[Fuc(a1-3)]GlcNAc
# Procedure, shortened: (§1)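 Glycan array binding is given as a within-array Z-score, which can be read as non-binding when negative. The arrays, 3228 of them, came from the Consortium for Functional Glycomics database and were retained only where the protein sequence was available. Z-scores were averaged across arrays of the same protein sequence at different concentrations or buffers and across linkers.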
# [2] = target: Neu5Ac(a2-3)Gal(b1-4)[Fuc(a1-3)]GlcNAc(b1-6)[Gal(b1-3)]GalNAc
# Procedure, shortened: as §1
# [3] = target: Neu5Ac(a2-3)Gal(b1-4)[Fuc(a1-3)]GlcNAc(b1-6)[Neu5Ac(a2-3)Gal(b1-3)]GalNAc
# Procedure, shortened: as §1
# [4] = target: Neu5Ac(a2-3)Gal(b1-4)[Fuc(a1-3)]GlcNAc6S
# Procedure, shortened: as §1
# [5] = target: Neu5Ac(a2-3)Gal6S(b1-4)GlcNAc
# Procedure, shortened: as §1
# [6] = target: Neu5Ac(a2-3)Gal6S(b1-4)[Fuc(a1-3)]GlcNAc
# Procedure, shortened: as §1
# Neu5Ac(a2-3)GalNAc = target: Neu5Ac(a2-3)GalNAc
# Procedure, shortened: as §1
# [7] = target: Neu5Ac(a2-3)GalNAc(b1-4)GlcNAc
# Procedure, shortened: as §1
# [8] = target: Neu5Ac(a2-3)[GalNAc(b1-4)]Gal(b1-4)Glc
# Procedure, shortened: as §1
# [9] = target: Neu5Ac(a2-3)[GalNAc(b1-4)]Gal(b1-4)GlcNAc
# Procedure, shortened: as §1
# [10] = target: Neu5Ac(a2-3)[Neu5Ac(a2-6)]GalNAc
# Procedure, shortened: as §1
# Neu5Ac(a2-6)Gal = target: Neu5Ac(a2-6)Gal
# Procedure, shortened: as §1
# Neu5Ac(a2-6)Gal(b1-4)Glc = target: Neu5Ac(a2-6)Gal(b1-4)Glc
# Procedure, shortened: as §1
# [11] = target: Neu5Ac(a2-6)Gal(b1-4)GlcNAc
# Procedure, shortened: as §1
# [12] = target: Neu5Ac(a2-6)Gal(b1-4)GlcNAc(b1-2)Man(a1-3)Man(b1-4)GlcNAc(b1-4)GlcNAc
# Procedure, shortened: as §1
# [13] = target: Neu5Ac(a2-6)Gal(b1-4)GlcNAc(b1-2)Man(a1-3)[Gal(b1-4)GlcNAc(b1-2)Man(a1-6)]Man(b1-4)GlcNAc(b1-4)GlcNAc
# Procedure, shortened: as §1
# [14] = target: Neu5Ac(a2-6)Gal(b1-4)GlcNAc(b1-2)Man(a1-3)[GlcNAc(b1-2)Man(a1-6)]Man(b1-4)GlcNAc(b1-4)GlcNAc
# Procedure, shortened: as §1
# [15] = target: Neu5Ac(a2-6)Gal(b1-4)GlcNAc(b1-2)Man(a1-3)[GlcNAc(b1-2)Man(b1-4)GlcNAc(b1-2)Man(a1-6)]Man(b1-4)GlcNAc(b1-4)GlcNAc
# Procedure, shortened: as §1
# [16] = target: Neu5Ac(a2-6)Gal(b1-4)GlcNAc(b1-2)Man(a1-3)[Man(a1-6)]Man(b1-4)GlcNAc(b1-4)GlcNAc
# Procedure, shortened: as §1
# [17] = target: Neu5Ac(a2-6)Gal(b1-4)GlcNAc(b1-2)Man(a1-3)[Neu5Ac(a2-6)Gal(b1-4)GlcNAc(b1-2)Man(a1-6)]Man(b1-4)GlcNAc(b1-4)GlcNAc
# Procedure, shortened: as §1
# [18] = target: Neu5Ac(a2-6)Gal(b1-4)GlcNAc(b1-2)Man(a1-6)Man(b1-4)GlcNAc(b1-4)GlcNAc
# Procedure, shortened: as §1
# [19] = target: Neu5Ac(a2-6)Gal(b1-4)GlcNAc(b1-2)Man(a1-6)[Gal(b1-4)GlcNAc(b1-2)Man(a1-3)]Man(b1-4)GlcNAc(b1-4)GlcNAc
# Procedure, shortened: as §1
# [20] = target: Neu5Ac(a2-6)Gal(b1-4)GlcNAc(b1-2)Man(a1-6)[GlcNAc(b1-2)Man(a1-3)]Man(b1-4)GlcNAc(b1-4)GlcNAc
# Procedure, shortened: as §1
# [21] = target: Neu5Ac(a2-6)Gal(b1-4)GlcNAc(b1-2)Man(a1-6)[Man(a1-3)]Man(b1-4)GlcNAc(b1-4)GlcNAc
# Procedure, shortened: as §1
# [22] = target: Neu5Ac(a2-6)Gal(b1-4)GlcNAc(b1-3)Gal(b1-3)GlcNAc
# Procedure, shortened: as §1
# [23] = target: Neu5Ac(a2-6)Gal(b1-4)GlcNAc(b1-3)Gal(b1-4)GlcNAc
# Procedure, shortened: as §1
# [24] = target: Neu5Ac(a2-6)Gal(b1-4)GlcNAc(b1-3)Gal(b1-4)GlcNAc(b1-3)Gal(b1-4)GlcNAc
# Procedure, shortened: as §1
# [25] = target: Neu5Ac(a2-6)Gal(b1-4)GlcNAc(b1-3)Gal(b1-4)[Fuc(a1-3)]GlcNAc(b1-3)Gal(b1-4)[Fuc(a1-3)]GlcNAc
# Procedure, shortened: as §1
# [26] = target: Neu5Ac(a2-6)Gal(b1-4)GlcNAc(b1-3)GalNAc
# Procedure, shortened: as §1
# [27] = target: Neu5Ac(a2-6)Gal(b1-4)GlcNAc6S
# Procedure, shortened: as §1
# Neu5Ac(a2-6)GalNAc = target: Neu5Ac(a2-6)GalNAc
# Procedure, shortened: as §1
# [28] = target: Neu5Ac(a2-6)GalNAc(b1-4)GlcNAc
# Procedure, shortened: as §1
# [29] = target: Neu5Ac(a2-6)GlcNAc(b1-4)GlcNAc
# Procedure, shortened: as §1
# [30] = target: Neu5Ac(a2-6)GlcNAc(b1-4)GlcNAc(b1-4)GlcNAc
# Procedure, shortened: as §1
# Neu5Ac(a2-8)Neu5Ac = target: Neu5Ac(a2-8)Neu5Ac
# Procedure, shortened: as §1
# [31] = target: Neu5Ac(a2-8)Neu5Ac(a2-3)Gal(b1-4)Glc
# Procedure, shortened: as §1
# [32] = target: Neu5Ac(a2-8)Neu5Ac(a2-3)[GalNAc(b1-4)]Gal(b1-4)Glc
# Procedure, shortened: as §1
# [33] = target: Neu5Ac(a2-8)Neu5Ac(a2-8)Neu5Ac
# Procedure, shortened: as §1
# [34] = target: Neu5Ac(a2-8)Neu5Ac(a2-8)Neu5Ac(a2-3)Gal(b1-4)Glc
# Procedure, shortened: as §1
# [35] = target: Neu5Ac(a2-8)Neu5Ac(a2-8)Neu5Ac(a2-3)[GalNAc(b1-4)]Gal(b1-4)Glc
# Procedure, shortened: as §1
# [36] = target: Neu5Ac(a2-8)Neu5Ac(a2-8)Neu5Ac(a2-8)Neu5Ac(a2-3)[GalNAc(b1-4)]Gal(b1-4)Glc
# Procedure, shortened: as §1
# [37] = target: Neu5Ac(b2-6)Gal(b1-4)GlcNAc
# Procedure, shortened: as §1
# Neu5Ac(b2-6)GalNAc = target: Neu5Ac(b2-6)GalNAc
# Procedure, shortened: as §1
# [38] = target: Neu5Ac9Ac(a2-3)Gal(b1-3)GlcNAc
# Procedure, shortened: as §1
# [39] = target: Neu5Ac9Ac(a2-3)Gal(b1-4)GlcNAc
# Procedure, shortened: as §1
# [40] = target: Neu5Ac9Ac(a2-6)Gal(b1-4)GlcNAc
# Procedure, shortened: as §1
# [41] = target: Neu5Gc(a2-3)Gal(b1-3)GlcNAc
# Procedure, shortened: as §1
# [42] = target: Neu5Gc(a2-3)Gal(b1-3)[Fuc(a1-4)]GlcNAc
# Procedure, shortened: as §1
# Neu5Gc(a2-3)Gal(b1-4)Glc = target: Neu5Gc(a2-3)Gal(b1-4)Glc
# Procedure, shortened: as §1
# [43] = target: Neu5Gc(a2-3)Gal(b1-4)GlcNAc
# Procedure, shortened: as §1
# [44] = target: Neu5Gc(a2-3)Gal(b1-4)[Fuc(a1-3)]GlcNAc
# Procedure, shortened: as §1
# [45] = target: Neu5Gc(a2-6)Gal(b1-4)GlcNAc
# Procedure, shortened: as §1
# Neu5Gc(a2-6)GalNAc = target: Neu5Gc(a2-6)GalNAc
# Procedure, shortened: as §1
# [46] = target: Neu5Gc(b2-6)Gal(b1-4)GlcNAc
# Procedure, shortened: as §1
binder,measurement,setting,value
"DC-SIGN (Canis lupus), XP_853402 (protein) AGLCRPCPWKWELFQESCYFFSQTQNTWKESISACQNLRAQLVIINSTEEQKFLKSWNTRNNQRTWIGLSDHHNEGSWKWVDNTPLQLSFWKEGEPNNHGDEDCVELYSDGWNDNRCSTENFWICKKPSSPCPGPGLNDIFEAQKIEWHE",glycan array binding signal (z-score),[1],-0.279
same,glycan array binding signal (z-score),[2],-0.407
same,glycan array binding signal (z-score),[3],-0.1
same,glycan array binding signal (z-score),[4],-0.148
same,glycan array binding signal (z-score),[5],-0.189
same,glycan array binding signal (z-score),[6],-0.072
same,glycan array binding signal (z-score),Neu5Ac(a2-3)GalNAc,-0.29
same,glycan array binding signal (z-score),[7],-0.325
same,glycan array binding signal (z-score),[8],-0.111
same,glycan array binding signal (z-score),[9],-0.085
same,glycan array binding signal (z-score),[10],-0.263
same,glycan array binding signal (z-score),Neu5Ac(a2-6)Gal,-0.074
same,glycan array binding signal (z-score),Neu5Ac(a2-6)Gal(b1-4)Glc,-0.327
same,glycan array binding signal (z-score),[11],-0.202
same,glycan array binding signal (z-score),[12],-0.175
same,glycan array binding signal (z-score),[13],-0.188
same,glycan array binding signal (z-score),[14],-0.068
same,glycan array binding signal (z-score),[15],-0.249
same,glycan array binding signal (z-score),[16],-0.258
same,glycan array binding signal (z-score),[17],-0.244
same,glycan array binding signal (z-score),[18],-0.247
same,glycan array binding signal (z-score),[19],-0.013
same,glycan array binding signal (z-score),[20],-0.211
same,glycan array binding signal (z-score),[21],-0.296
same,glycan array binding signal (z-score),[22],-0.302
same,glycan array binding signal (z-score),[23],-0.327
same,glycan array binding signal (z-score),[24],-0.331
same,glycan array binding signal (z-score),[25],-0.169
same,glycan array binding signal (z-score),[26],-0.263
same,glycan array binding signal (z-score),[27],-0.341
same,glycan array binding signal (z-score),Neu5Ac(a2-6)GalNAc,-0.217
same,glycan array binding signal (z-score),[28],-0.281
same,glycan array binding signal (z-score),[29],-0.227
same,glycan array binding signal (z-score),[30],-0.347
same,glycan array binding signal (z-score),Neu5Ac(a2-8)Neu5Ac,0.015
same,glycan array binding signal (z-score),[31],-0.228
same,glycan array binding signal (z-score),[32],-0.062
same,glycan array binding signal (z-score),[33],-0.312
same,glycan array binding signal (z-score),[34],-0.292
same,glycan array binding signal (z-score),[35],0.226
same,glycan array binding signal (z-score),[36],0.169
same,glycan array binding signal (z-score),[37],-0.361
same,glycan array binding signal (z-score),Neu5Ac(b2-6)GalNAc,-0.264
same,glycan array binding signal (z-score),[38],-0.346
same,glycan array binding signal (z-score),[39],1.02
same,glycan array binding signal (z-score),[40],0.058
same,glycan array binding signal (z-score),[41],-0.15
same,glycan array binding signal (z-score),[42],-0.101
same,glycan array binding signal (z-score),Neu5Gc(a2-3)Gal(b1-4)Glc,-0.065
same,glycan array binding signal (z-score),[43],-0.237
same,glycan array binding signal (z-score),[44],-0.319
same,glycan array binding signal (z-score),[45],-0.011
same,glycan array binding signal (z-score),Neu5Gc(a2-6)GalNAc,-0.273
same,glycan array binding signal (z-score),[46],0.006
